From patent US20260216362A1, “ANTI-BDCA2 ANTIBODY-DRUG CONJUGATE AND USE THEREOF” (DUALITY BIOLOGICS (SHANGHAI) CO., LTD., priority 2022, published 2026)

Legend:
GR reporter gene cells = test: Bystander killing effect assay with GR reporter gene cells mixed with HEK293-humanBDCA2 or HEK293 cells; format: cell-based, human; details: compared to isotype control antibody conjugate; 0.01-100 nM, 24 h
Method: HEK293 cells cultured to the logarithmic growth phase were digested with TrypLE trypsin. The cells were collected, and the cell concentration was adjusted to 2×10^5 cells/mL using DMEM+10% FBS. 30 mL of the cells were seeded into a culture flask, and 1.5 mL of a transfection reagent was prepared according to the table doses.
1.5 mL of the transfection reagent was mixed with 30 mL of the cells, and after 24 h of culture, GR reporter gene cells were collected. The GR reporter gene cells obtained by transfection were mixed with HEK293-humanBDCA2 cells or HEK293 cells at a ratio of 1:1 and added to a 96-well culture plate at 2×10^4 cells/well. The test reagent, positive control (dexamethasone, compound 4 in Example 2) and negative control (isotype IgG-ADC) were added at concentrations of 0.01-100 nM as designed for the experiment. After 24 h of incubation, the Promega Dual-Glo Luciferase Assay System detection reagent was added according to the manufacturer's instructions, and the Firefly and Renilla fluorescence signals were detected by Enspire reader. The glucocorticoid receptor signal produced by the bystander killing effect of the conjugate was calculated by dividing the Firefly signal by the Renilla signal.

[1] = system: cynomolgus monkey whole blood stimulated with CpG-A; test: IFN-α after in vitro CpG-A stimulation of whole blood of dosed cynomolgus monkeys; format: in vivo; set-up: average expression level of IFNα on days 0-33 after administration: unit not given here; details: 10 mg/kg i.v.
Method: Cytokine expression was detected by whole blood stimulation in vitro.
The cells were cultured at 37° C. for 18 h, and the supernatant was collected. The TNF-α and IFN-α concentration levels in the supernatant were detected using an ELISA kit.
IFN-α concentration assay was performed using a Mabtech Human IFN-α (pan specific) ELISA kit (Cat. No. 3425-1H-20). 50 μL of serially diluted cytokine standard was added to each standard well, 50 μL of test sample was added to each sample well, and 50 μL of PBS was added to each blank control well. The cells were incubated at 37° C. for 2 h. The plate was washed 3 times, the liquid in each well was removed, and 300 µL of 1× PBST buffer working solution was added to each well; and after 1 minute of residence, the liquid in each well was discarded. 100 μL of detection antibody working solution was added to each well, and the cells were incubated at 37° C. for 1 h. […] The reading at wavelength 450 nm was detected using a Molecular device spectra max plus384 instrument within 10 min after the reaction was stopped.
Evaluation criteria in FIGS. 12-13: the average expression level changes of IFNα/TNFα were evaluated after in vitro stimulation of the whole blood with CpGA at 200 μg/mL on days 0-33 after administration. […]

[2] = system: pDCs in the peripheral blood of cynomolgus monkeys; test: pDC percentage and BDCA2 expression level on pDCs in peripheral blood of dosed cynomolgus monkeys by FACS; details: 10 mg/kg intravenous

B1: Hu033-03-ADC (conjugate)
heavy: EVQLVESGGGLVKPGGSLRLSCAASGFTFSSYGMSWVRQAPGKGLEWVSTISSGDSYTYYPDSVKGRFTISRDNAKNSLYLQMNSLRAEDTAVYYCARQIYYDYAYYFDFWGQGTTVTVSS[human IgG1 constant region not spelt out]
light: DIVLTQSPASLAVSPGQRATITCRASESVSFRTSHLMHWYQQKPGQPPKLLIYGASNLESGVPARFSGSGSETDFTLTINPVEAEDTANYFCQQSIEDPPTFGGGTKVEIKRTVAAPSVFIFPPSDEQLKSGTASVVCLLNNFYPREAKVQWKVDNALQSGNSQESVTEQDSKDSTYSLSSTLTLSKADYEKHKVYACEVTHQGLSSPVTKSFNRGEC
- activation of GR reporter gene cells (bystander killing effect) (GR reporter gene cells): specifically activated GR reporter gene cells in the presence of BDCA2 expression
- IFN-α expression level compared to the blank control group ([1]; CpGA-stimulated whole blood): reduced
- average expression level of IFNα on days 0-33 after administration ([1]; whole blood stimulated with CpGA 200 μg/mL, before administration 34.2 (FIG. 12b) and 34.4 (FIG. 12c)): 7.6
- BDCA2 level on the surface of pDCs in the blood compared to the blank control [2]: reduced
- pDC percentage in the blood compared to the blank control [2]: no significant change
- safety [2]: good safety
